Columns and labels:
Assay in all cases: GST pull-down of 35S-labelled in vitro translated cyclin
[1] = target: T1, cyclin D1 (mouse, UniProt P25322 1-295)
T1 construct: 35S-labelled in vitro translation product in the pull-down; baculovirus product in Sf9 cells
Experimental: (§1) Because DMP1 interacted with cyclin D2 in yeast, the ability of a glutathione S-transferase (GST)-DMP1 fusion protein to bind D-type cyclins in vitro is examined. GST is fused to residues 176-761 of DMP1 (in lieu of GAL4 in the original cDNA clone), and the bacterially synthesized recombinant protein is incubated with [³⁵S]methionine-labeled D-type cyclins prepared by transcription and translation in vitro. As a positive control, GST-RB which can specifically bind D-type cyclins in this assay is used (15). Bound cyclins recovered on washed glutathione-Sepharose beads are analyzed by electrophoresis on denaturing gels. […] GST-DMP1 is less efficient than GST-RB in binding cyclins D2 and D3 (˜4-fold less binding), and under these conditions, an interaction with D1 is not detected (lanes 3, 7, 11). No labeled proteins bind to GST alone (lanes 4, 8, 12), and neither cyclin A nor cyclin E bind to GST-RB or to GST-DMP1. A cyclin D2 mutant disrupted in an amino-terminal Leu-X-Cys-X-Glu pentapeptide that is required for high efficiency GST-RB binding is not detectably compromised in its interaction with GST-DMP1 (negative data not shown); in agreement, DMP1 bears no homology to RB or to RB-related family members (p107 and p130).

[2] = target: T2, cyclin D2 (mouse, UniProt P30280 1-289)
T2 construct: 35S-labelled in vitro translation product in the pull-down; baculovirus product in Sf9 cells
T2 sequence (P30280 whole entry): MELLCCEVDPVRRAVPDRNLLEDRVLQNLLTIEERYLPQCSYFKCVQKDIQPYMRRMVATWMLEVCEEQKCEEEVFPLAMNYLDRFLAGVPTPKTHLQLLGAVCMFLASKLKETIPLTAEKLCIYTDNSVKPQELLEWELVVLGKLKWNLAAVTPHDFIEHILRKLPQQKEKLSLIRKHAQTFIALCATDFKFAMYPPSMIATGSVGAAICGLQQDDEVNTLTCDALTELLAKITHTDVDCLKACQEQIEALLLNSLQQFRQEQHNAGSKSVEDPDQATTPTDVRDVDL
Experimental: as §1

[3] = target: T3, cyclin D3 (mouse, UniProt P30282 1-292)
T3 construct: 35S-labelled in vitro translation product in the pull-down; baculovirus product in Sf9 cells
T3 sequence (looked up): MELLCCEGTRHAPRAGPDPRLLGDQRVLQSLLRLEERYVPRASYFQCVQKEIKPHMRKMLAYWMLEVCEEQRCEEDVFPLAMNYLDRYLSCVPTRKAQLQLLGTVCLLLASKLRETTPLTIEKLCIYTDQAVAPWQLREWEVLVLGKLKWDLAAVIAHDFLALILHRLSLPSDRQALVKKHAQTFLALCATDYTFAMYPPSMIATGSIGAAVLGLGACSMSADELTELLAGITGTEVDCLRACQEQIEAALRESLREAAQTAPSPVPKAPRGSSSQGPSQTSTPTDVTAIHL
Experimental: as §1

Measured: binding result

T1 sequence (P25322 whole entry): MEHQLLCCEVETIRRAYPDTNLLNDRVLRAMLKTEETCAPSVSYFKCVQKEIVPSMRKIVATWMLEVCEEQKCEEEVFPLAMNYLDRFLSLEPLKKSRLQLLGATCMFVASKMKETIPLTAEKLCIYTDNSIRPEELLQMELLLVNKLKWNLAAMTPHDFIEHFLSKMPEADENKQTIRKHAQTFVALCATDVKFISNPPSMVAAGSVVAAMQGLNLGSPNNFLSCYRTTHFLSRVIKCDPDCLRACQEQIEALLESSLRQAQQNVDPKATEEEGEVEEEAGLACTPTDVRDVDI

B1: GST alone (other)
chain: not shown
notes: Negative control; also called GST controls
no binding: all assays above

From patent US20030028002A1 (ST JUDE CHILDREN S RESEARCH HOSPITAL, published 2003)
